# Experimental data taken from the supplement of paper PMC7826260.
# The other results are listed elsewhere or left out. The data describe in vitro nicking of single-stranded DNA by Rep domains (1 h at 37 °C, 3 µM enzyme); the outer parts of the 90-letter strands are left off. The score is log2 (uncut reads / reads without enzyme); the lower, the more was cut; hits are not called. Reads are scaled to the total, so uncut sequences can rise above 0 when many others are cut.
# How the values were obtained:
# Test in all cases: uncleaved DNA left, log2 of reads against the no-enzyme library (log2 ratio); higher = less cleavage (more negative = more Rep cleavage of the k-mer); sequences stand for … in CTCGTCCG…ACCGGAGA
# [1] = tested on: T1, Rep nickase domain of Muscovy duck circovirus
# T1 sequence (residues 1-111 of Rep, tag left off): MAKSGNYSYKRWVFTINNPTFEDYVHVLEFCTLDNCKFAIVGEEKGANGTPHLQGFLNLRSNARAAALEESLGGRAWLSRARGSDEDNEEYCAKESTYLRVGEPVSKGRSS
# Experimental: (§1)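 A pool of 90-nt single-stranded DNAs with seven random bases just before the constant AC of the nick site (name = the seven bases) was cut by 3 µM recombinant His6-SUMO-tagged Rep nickase domain (300 nM DNA, 50 mM HEPES pH 8.0, 50 mM NaCl, 1 mM MnCl2, 1 h, 37 °C, three replicates). Uncut DNA was amplified and sequenced.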
# [2] = tested on: T2, Rep nickase domain of banana bunchy top virus
# T2 sequence (residues 1-94 of Rep, tag left off): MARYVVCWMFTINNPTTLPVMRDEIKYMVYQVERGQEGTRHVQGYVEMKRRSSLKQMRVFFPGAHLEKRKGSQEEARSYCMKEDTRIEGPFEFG
# Experimental: as §1
# [3] = tested on: T3, Rep nickase domain of cabbage leaf curl virus
# T3 sequence (residues 1-116 of Rep, tag left off): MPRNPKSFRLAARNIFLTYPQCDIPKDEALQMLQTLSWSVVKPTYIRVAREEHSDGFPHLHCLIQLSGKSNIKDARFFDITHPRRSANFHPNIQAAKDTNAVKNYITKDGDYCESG
# Experimental: as §1
# [4] = tested on: T4, Rep nickase domain of chickpea chlorotic dwarf virus
# T4 sequence (residues 1-124 of Rep, tag left off): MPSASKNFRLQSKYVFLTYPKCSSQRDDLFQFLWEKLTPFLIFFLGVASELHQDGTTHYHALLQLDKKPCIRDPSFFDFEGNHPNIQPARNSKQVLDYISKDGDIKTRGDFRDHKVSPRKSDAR
# Experimental: as §1
# [5] = tested on: T5, Rep nickase domain of faba bean necrotic yellows virus
# T5 sequence (residues 1-98 of Rep, tag left off): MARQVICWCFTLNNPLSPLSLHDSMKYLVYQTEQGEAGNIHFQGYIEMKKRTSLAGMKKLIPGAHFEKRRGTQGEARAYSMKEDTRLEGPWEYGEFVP
# Experimental: as §1
# [6] = tested on: T6, Rep nickase domain of maize striate mosaic virus
# T6 sequence (residues 1-117 of Rep, tag left off): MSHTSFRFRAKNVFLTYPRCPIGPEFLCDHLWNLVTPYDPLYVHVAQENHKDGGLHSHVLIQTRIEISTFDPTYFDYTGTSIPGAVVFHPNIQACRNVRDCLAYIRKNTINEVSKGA
# Experimental: as §1
# [7] = tested on: T7, Rep nickase domain of porcine circovirus 2
# T7 sequence (residues 2-116 of Rep, tag left off): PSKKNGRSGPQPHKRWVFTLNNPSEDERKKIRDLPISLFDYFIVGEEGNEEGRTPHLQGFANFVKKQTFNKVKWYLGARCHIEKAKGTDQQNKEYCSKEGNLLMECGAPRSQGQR
# Experimental: as §1
# [8] = tested on: T8, Rep nickase domain of tomato yellow leaf curl virus
# T8 sequence (residues 1-136 of Rep, tag left off): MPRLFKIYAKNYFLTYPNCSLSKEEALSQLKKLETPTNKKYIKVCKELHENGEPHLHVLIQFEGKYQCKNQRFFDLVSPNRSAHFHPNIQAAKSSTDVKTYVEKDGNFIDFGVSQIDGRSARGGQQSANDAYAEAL
# Experimental: as §1
# [9] = tested on: T9, Rep nickase domain of wheat dwarf virus
# T9 sequence (residues 1-137 of Rep, tag left off): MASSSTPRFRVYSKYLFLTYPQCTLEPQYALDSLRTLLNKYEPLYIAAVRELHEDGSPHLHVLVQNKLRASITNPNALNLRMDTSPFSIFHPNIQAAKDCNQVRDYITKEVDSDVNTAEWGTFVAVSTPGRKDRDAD
# Experimental: as §1
Sequence,uncleaved DNA left (log2) [1],uncleaved DNA left (log2) [2],uncleaved DNA left (log2) [3],uncleaved DNA left (log2) [4],uncleaved DNA left (log2) [5],uncleaved DNA left (log2) [6],uncleaved DNA left (log2) [7],uncleaved DNA left (log2) [8],uncleaved DNA left (log2) [9]
TCTAGGG,0.0506,-0.0281,0.154,0.408,0.0504,-0.0795,0.0835,-0.0727,-0.00328
GTATCTG,0.0631,0.0889,0.157,0.552,0.0116,1.04,0.111,0.0484,0.0369
CACTTCA,-0.118,-0.319,-0.204,-2.44,-0.0502,-0.734,-2.76,-0.01,0.0782
TCGTGAT,0.0766,0.0866,0.0992,0.716,-0.0557,1.56,-2.94,0.0389,-0.0273
TCCCGAC,0.0151,-0.0631,0.0188,-0.0705,-0.14,-0.366,-0.151,-0.158,-0.111
TGACCGC,0.0012,0.0121,0.0423,0.0529,-0.0577,-0.222,-0.0884,0.0448,0.0501
TTTGCAA,0.04,0.153,-0.398,-0.41,0.0173,-1.02,0.235,0.0556,0.0901
CGGCTAT,-0.0114,0.0154,0.191,0.845,0.0183,1.04,0.018,0.221,0.0302
TGTCTGC,0.0617,0.144,-0.0572,-0.23,0.136,-0.575,0.192,0.101,0.109
CCCGCTT,-0.165,-0.0891,-0.164,-1.74,-0.0713,-0.393,-0.403,-0.176,-0.279
CTATCTT,-2.98,-0.178,-1.88,-2.7,0.0242,-0.973,-2.92,0.0143,-0.509
GTTTTCG,0.0988,0.0729,-0.474,-0.392,0.0824,-0.582,0.118,-0.0023,-0.00666
TAGCCCT,-0.0362,0.0188,-0.7,-2.48,-0.0424,0.408,-3.57,0.0259,0.0238
AGGGAAC,0.0169,0.2,0.436,1.44,0.0237,1.09,0.156,0.0804,0.0471
TTAGCGT,0.0149,-0.0161,-0.832,-0.674,0.0525,-1.12,0.119,0.0165,-0.204
